The results in this text go back to PubChem BioAssay AID463173 (ICCB-Longwood Screening Facility, Harvard Medical School, 2010).

Out of some 52,000 compounds screened, about 4,300 (8.3%) were called active. No stated cut-off is given here; in the data, active means survival mostly below about 52% (no sharp cut-off); inactive means mostly above about 56%. The list shows a part of the results.

This assay relates to DeltatarO mutant. Nature of the assay: growth inhibition of S. aureus wild type versus tarO mutant, primary screen, teichoic acid synthesis inhibitors, RN4220, OD600 (AID 463173). The note with it: OD600, 18 h, active compounds read low, screened at 18.75 µg/mL (by protocol).
Consider `Cc1ccc(C(=O)c2cn(Cc3cccc(Cl)c3)c3nc(C)ccc3c2=O)cc1`, for which the survival is active: 60%. On to `CCCCNC(=O)c1nn(C)c2c1CSc1ccccc1-2`, for which the survival is inactive: 72%. As for `O=C(CSCc1ccc(F)cc1)N1CCN(c2ccccc2F)CC1`, the survival is inactive: 102%. As for `Cc1cc2c(cc1S(=O)(=O)NCc1ccc(F)cc1)n(C)c(=O)c(=O)n2C`, the figure is inactive: 82%. With `C=CCN=C1SCC(=O)N1S(=O)(=O)c1ccc(C)cc1` the figure was active: 60%; with `CCc1ccc(NC(=O)CSc2ccnc(=O)[nH]2)cc1`, inactive: 78%; with `COc1cccc(C(=O)NCC2OCCc3ccccc32)c1` (stereo unspecified), inactive: 57%. As for `Cc1nn(C)c(C)c1S(=O)(=O)N(CC(=O)NCCc1ccccc1)c1ccc(C(C)C)cc1`, the figure is inactive: 85%; as for `CCOC(=O)c1oc2ccc(Br)cc2c1N`, inactive: 80%; as for `COc1ccc(CCC(=O)NCCc2csc(-c3ccc(F)cc3)n2)cc1`, inactive: 73%. For the compound `CC(C)c1nc2ccccn2c1NC1CCCCC1`, the survival is inactive: 102%. As for `Cc1ccc(-c2nn3c(-c4ccccc4C)nnc3c3ccccc23)cc1`, the figure is inactive: 40%; as for `Cc1cn2c(=O)cc(COC(=O)c3ccc(NC(=O)COc4ccccc4C)cc3)nc2s1`, inactive: 95%. As for `CCOC(=O)c1cc(-c2ccccc2)n(-c2cccc(C(=O)Nc3cccc(SC)c3)c2)c1C`, the figure is active: 32%; as for `CCc1ccc(-n2c(=O)c3c4c(sc3n(Cc3ccccc3C#N)c2=O)CCCC4)cc1`, inactive: 139%. `CCCn1c2ccccc2c2cnn(CC(=O)Nc3cc(C)c(Cl)cc3OC)c(=O)c21`: the survival was inactive: 118%. With `CC1CCc2c(sc(NC(=O)Cc3ccccc3)c2C(=O)Nc2ccc(Cl)cc2)C1` (stereo unspecified) the figure was inactive: 57%. With `COc1ccc(OC)c(NC(=O)CSc2nc(=O)n(CCN(C)C)c3c2CCC3)c1` the figure was inactive: 67%; with `CCc1ccccc1NC(=O)N1CCOc2ccccc21`, inactive: 106%. With `O=C(Cn1ncc2c([nH]c3ccccc32)c1=O)NCCCN1CCN(c2ccc(F)cc2)CC1` the figure was inactive: 89%; with `CCCOc1ccc(C2C(=O)N(C3CCCCCC3)CC(=O)N2Cc2ccccc2OC)cc1OC` (stereo unspecified), inactive: 94%; with `O=C(CCn1c(=O)c2sccc2n(Cc2ccccc2F)c1=O)NCc1ccc2c(c1)OCO2`, active: 84%. Regarding `CCc1cccc(NC(=O)CCn2c(=O)c3cccn3c3cccnc32)c1`, the survival is inactive: 91%. As for `Cc1ccc(Nc2ccc3cc(S(=O)(=O)N4CCC(C)CC4)ccc3n2)c(Cl)c1`, the figure is inactive: 88%; as for `CCOc1ccc(-n2cc(-c3ccccc3)c3c(NCCc4ccccc4)ncnc32)cc1`, inactive: 95%; as for `Cc1cccc(NC(=O)Cn2nc(-c3ccccc3)c3cnc4ccccc4c32)c1`, inactive: 92%. As for `CCOC(=O)N1CCc2c(sc3c2c(=O)n(Cc2ccccc2)c(=O)n3CC(=O)Nc2cccc(CC)c2)C1`, the figure is inactive: 71%; as for `CCc1ccc2nc(N(Cc3cccnc3)C(=O)c3ccc(C#N)cc3)sc2c1`, inactive: 73%; as for `Cc1ccc(N2CCN(C(=O)c3nn(C)c4c3CS(=O)(=O)c3ccccc3-4)CC2)c(C)c1`, inactive: 77%. With `CC(=O)Nc1ccc(NC(=O)c2oc3c(c2C)-c2nn(Cc4ccccc4Cl)cc2CC3)cc1` the figure was inactive: 61%. Turning to `CCCCC(=O)Nc1ccc2nc(SCC(=O)N3CCc4ccccc43)sc2c1`, the survival was inactive: 104%. As for `O=C(Nc1ccc(F)cc1F)C1CCN(c2ncccn2)CC1`, the figure is inactive: 58%; as for `O=C(Cn1nnc(-c2ccncc2)n1)N(C1CCCCC1)C1CCCCC1`, inactive: 102%; as for `O=S(=O)(c1ccc(C2CCCCC2)cc1)N1CCN(c2ccc(Cl)c(Cl)c2)CC1`, active: 54%. As for `Cc1ccccc1NC(=O)Cn1cc(C(=O)c2ccco2)c2ccccc21`, the figure is inactive: 45%; as for `CCC(c1nnnn1C1CCCC1)N1CCN(Cc2ccccc2)CC1` (stereo unspecified), inactive: 99%; as for `Cc1ccc(C)c(N2CCN(c3ncnc4c3nc3n4CCCC3)CC2)c1`, inactive: 117%.

Turning to `O=C(CCNS(=O)(=O)c1ccc2c(c1)CCCC(=O)N2)Nc1cccc(Cl)c1`, the survival is inactive: 88%. On to `COc1ccc(C(=O)c2c(N)c(-c3nc(-c4ccc5c(c4)OCO5)cs3)c3ccccn23)cc1`, for which the survival is inactive: 103%. With `O=C(NCCc1ccccc1)c1ccc(CS(=O)Cc2ccc(Cl)cc2)o1` (stereo unspecified) the figure was inactive: 74%. As for `Cc1cc(NC(=O)CCc2nc3cccnc3n2-c2ccccc2)ccc1Br`, the figure is active: 31%; as for `COc1cc(NC(=O)Cn2nc(C(F)(F)F)c3c2CCC3)cc(OC)c1OC`, inactive: 130%.

On to `COc1cc(OC)cc(-c2cc3nc(C)c(CCC(=O)NCCc4cccc(C)c4)c(C)n3n2)c1`, for which the survival was inactive: 75%. For the compound `COc1ccc(OC)c(CNC(=O)c2ccc(N3Cc4ccccc4Oc4ncccc43)s2)c1`, the survival is inactive: 82%. As for `O=C(CCn1c(=O)c2ccccc2n(CC(=O)Nc2cccc(F)c2)c1=O)NCCc1ccccc1`, the figure is inactive: 90%. Regarding `CC1CCCN(CCCNC(=O)c2cc(Sc3ccc(F)cc3)nc3ccccc23)C1` (stereo unspecified), the survival was inactive: 55%.

For the compound `CCOC(=O)c1c(C)[nH]c(C)c1S(=O)(=O)N(C)CC(=O)Nc1ccc(OC)cc1`, the survival is inactive: 86%. With `Cc1cccc(Cn2cc(S(=O)(=O)c3cccc(Cl)c3)c(=O)c3cc(F)c(N4CCOCC4)cc32)c1` the figure was inactive: 85%; with `Cn1c(=O)c2nc(SCC(=O)Nc3ccc(OC(F)(F)F)cc3)n(C)c2n(C)c1=O`, inactive: 83%; with `COc1ccc(CC(=O)Nc2c(C(=O)N3CCN(c4ccccc4)CC3)oc3ccccc23)cc1OC`, inactive: 75%. As for `COc1cc(C(CC(=O)Nc2ccc(C)c(F)c2)N2Cc3ccccc3C2=O)cc(OC)c1OC` (stereo unspecified), the figure is inactive: 93%; as for `COc1ccc(-c2nc(CNC(=O)NC3CCCCC3)c(C)o2)cc1`, inactive: 113%. With `CCN(CC)c1ncnc2c1cnn2-c1cc(Cl)ccc1C` the figure was active: -5%; with `O=C1OCC2=C1C(c1cccc(Cl)c1)CC(=O)N2c1ccc(C(F)(F)F)cc1` (stereo unspecified), inactive: 57%; with `CCOc1ccccc1NC(=O)C1CCN(S(=O)(=O)c2c(C)noc2/C=C/c2ccco2)CC1`, inactive: 72%. Turning to `O=C(NCCc1ccc(Cl)cc1)c1c2c(nc3ccccc13)C(=O)N(C1CCCCC1)C2`, the survival is inactive: 92%. In the case of `COCC(C)NCc1ccc(SC)cc1` (stereo unspecified), the survival is inactive: 63%. In the case of `Cc1csc2nc(COC(=O)c3ccccc3NC(=O)c3cccc(Br)c3)cc(=O)n12`, the survival is inactive: 87%.

For `O=S(=O)(c1ccc(Br)s1)N1CCN(c2cccc(C(F)(F)F)c2)CC1`, the survival is inactive: 53%. With `COCCn1c(SCC(=O)Nc2cc(Cl)ccc2OC)nc2c([nH]c3ccccc32)c1=O` the figure was inactive: 113%; with `O=C(NC1CCN(C(=O)Nc2ccccc2C(F)(F)F)CC1)c1ccco1`, inactive: 89%; with `COC(=O)/C(C#N)=C/c1ccc(OC)cc1`, inactive: 79%.

Take `Cc1noc(-c2ccc(-c3noc(-c4ccc(F)cc4)n3)cc2)n1`: the survival was inactive: 72%.

`CCOC(=O)c1cccc(NC(=O)CCSCCc2ccccn2)c1`: the survival is inactive: 87%. With `O=C(CCCn1c2ccccc2c(=O)c2ccccc21)Nc1cccc(Cl)c1` the figure was active: 27%; with `Cc1ccc(NC(=O)Cn2nc(-c3ccccc3)nc(Cc3ccc(Cl)cc3)c2=O)cc1`, inactive: 94%. With `COc1cc(C2Nc3ccccc3-c3cc(C)nn32)ccc1O` (stereo unspecified) the figure was inactive: 121%; with `COc1ccccc1OC(C)C(=O)Nc1cccc(-c2nc3ccccc3s2)c1` (stereo unspecified), active: 37%.

As to `COc1ccc(-n2nc(C(=O)Nc3ccccn3)c3c4ccccc4n(C)c3c2=O)cc1`, the survival is inactive: 72%. As for `CCOC(=O)c1ccc(NC(=O)c2cnc3c(-c4ccc(F)cc4)c(C)nn3c2C)cc1`, the figure is inactive: 108%; as for `Cc1cc(C)n(-c2nc3ccccc3nc2Nc2ccc(N(C)C)cc2)n1`, active: -2%. With `CCOc1ccc(-c2nc3c(c(SCC(=O)Nc4ccccc4C)n2)Cc2ccccc2O3)cc1` the figure was inactive: 117%; with `CCCCN(C(=O)c1cc(OC)c(OC)c(OC)c1)C1=CC2CCC(C1)N2C` (stereo unspecified), inactive: 111%. With `Cc1cc(C)cc(NC(=O)Cn2c(-c3cncs3)nc3ccccc32)c1` the figure was active: 37%; with `Cc1ccccc1NC(=O)CC(NCc1cccnc1)C(=O)O` (stereo unspecified), inactive: 86%; with `CCOc1ccc(C(=O)Cn2c(=O)n3nc(CCn4nc(C)cc4C)nc3c3cc(OC)c(OC)cc32)cc1`, inactive: 98%.

As for `Cc1cccc(N(C)c2nc3ccccc3c3nnc(C)n23)c1`, the survival was inactive: 118%. With `COc1cc(NC(=O)c2cc(C3CC3)nc3c2c(C)nn3-c2ccccc2)cc(OC)c1` the figure was inactive: 91%; with `COC(=O)Cn1c(=O)c2cccn2c2ccc(F)cc21`, inactive: 91%.

Take `Cc1ccccc1N1CCN(S(=O)(=O)c2nnc(NC(=O)c3ccc(C(C)C)cc3)s2)CC1`: the survival was active: 38%. With `CCCCCn1c(NCc2ccc(OC)cc2)nc2ccccc21` the figure was active: 33%. As for `Cc1ccc(NC(=O)CSc2nnc(-c3ccc([N+](=O)[O-])cc3)o2)c(C)c1`, the figure is inactive: 73%; as for `Cc1ccc(C(=O)c2cn(CC(=O)Nc3ccc(C(C)C)cc3)c3nc(C)ccc3c2=O)cc1`, inactive: 69%; as for `CCS(=O)(=O)N1CCCC(C(=O)NCCOC)C1` (stereo unspecified), inactive: 78%.

For `CCOc1ccc(CN2CCN(C(=O)c3ccco3)CC2)cc1`, the survival is inactive: 77%.

For `CCCNC(=S)N1CCC(NC(=O)Nc2ccc(C)cc2)CC1`, the survival is inactive: 66%.

With `CN(C)c1ccc(CNC(=O)c2ccc(Cn3c(SCc4ccccc4)nc4cccnc43)cc2)cc1`, the survival is inactive: 87%. For the compound `Cc1ccccc1CNC(=O)c1ccc2c(c1)c(C)c(C)n2C`, the survival was inactive: 85%.

Consider `CCc1ccc(CNC(=O)c2cnc3sc(N4CCCC4)nn3c2=O)cc1`, for which the survival is inactive: 94%. Take `CCCCN(C)C(=O)C1CCN(Cc2ccc(OCc3ccccc3)c(OC)c2)CC1`: the survival is inactive: 118%. As for `Cc1ccc(Cl)cc1NC(=O)C1CCN(c2nnc(C)c3c(C)n(-c4ccccc4)nc23)CC1`, the figure is inactive: 78%.
